# Data as given in PubChem BioAssay AID2676 (National Center for Advancing Translational Sciences (NCATS), 2010).
# The whole screen tested about 370,000 compounds, of which about 1,100 (0.3%) were called active. Inconclusive results, whose numbers are uncertain, are shown with a selection of clear calls. Calls come from the whole dose curve; as a rule, active = well fitted activation curve with a large enough effect; inconclusive = small, poorly fitted or top-dose-only effect; inactive = flat fitted curve, though single readings scatter. Potencies of inconclusive entries are doubtful fits and often do not repeat.
# Biological target: Relaxin receptor 1 (Homo sapiens) (UniProt Q9HBX9)
# Assay: qHTS Assay for Agonists of the Relaxin Receptor RXFP1; note: nearly all actives have a fitted effect of over 60% in size
# Settings: HEK293T-RXFP1 cAMP TR-FRET, 30 min; series mostly up to 57.5 µM
# Method in brief: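 HEK293T cells stably expressing RXFP1 were pretreated with the PDE4 inhibitor Ro 20174, exposed to compounds for 30 min at 37C, lysed, and cAMP was read by TR-FRET. Data normalized to buffer (basal) and 29 nM porcine relaxin (100%).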
# Potency is the fitted concentration of half-maximal effect; tags give direction and shape of the fitted curve.
# Sequence of UniProt Q9HBX9 (Q9HBX9 whole entry, looked up): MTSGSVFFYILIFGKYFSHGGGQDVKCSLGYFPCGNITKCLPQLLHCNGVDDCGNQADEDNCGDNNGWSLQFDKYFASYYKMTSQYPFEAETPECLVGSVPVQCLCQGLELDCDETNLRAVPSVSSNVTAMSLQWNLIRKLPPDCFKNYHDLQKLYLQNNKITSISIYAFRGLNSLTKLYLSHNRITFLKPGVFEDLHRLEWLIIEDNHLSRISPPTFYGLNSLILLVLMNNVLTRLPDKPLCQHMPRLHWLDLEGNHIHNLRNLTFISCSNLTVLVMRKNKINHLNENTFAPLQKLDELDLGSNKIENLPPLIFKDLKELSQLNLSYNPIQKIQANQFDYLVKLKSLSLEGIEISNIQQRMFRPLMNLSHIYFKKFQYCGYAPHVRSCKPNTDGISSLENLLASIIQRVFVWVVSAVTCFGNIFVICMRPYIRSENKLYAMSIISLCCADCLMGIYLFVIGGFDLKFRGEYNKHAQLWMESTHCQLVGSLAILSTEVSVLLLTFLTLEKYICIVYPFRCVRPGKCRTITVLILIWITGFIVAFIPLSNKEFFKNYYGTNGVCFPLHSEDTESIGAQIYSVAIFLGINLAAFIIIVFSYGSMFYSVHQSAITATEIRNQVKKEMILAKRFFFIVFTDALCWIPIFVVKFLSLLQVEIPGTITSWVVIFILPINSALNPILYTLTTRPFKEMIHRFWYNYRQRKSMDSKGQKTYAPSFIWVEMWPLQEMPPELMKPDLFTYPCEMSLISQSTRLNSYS
row,SMILES,Potency
1,Cc1cc(C)n(CCc2nc3c4ccccc4nc(N4CCN(c5ccccc5)CC4)n3n2)n1,inactive
2,O=C(NC(NNc1ccc([N+](=O)[O-])cc1)(C(F)(F)F)C(F)(F)F)c1ccc(F)cc1,inactive
3,Cc1ccc2nc(N(CCCN(C)C)C(=O)c3ccc(S(=O)(=O)N4CCc5ccccc5C4)cc3)sc2c1,inactive
4,O=C(O)COc1ccc(-c2nccc(-c3cccs3)n2)cc1,"inconclusive: 22.4 µM [activator, single point]"
5,O=C(CCc1nnc2ccc(NCCCN3CCCC3=O)nn12)NCc1ccccc1Cl,"inconclusive: 15.8 µM [activator, partial curve]"
6,O=C(O)c1cccnc1SCc1cn2cc(Br)ccc2n1,"inconclusive: 31.6 µM [activator, partial curve]"
7,CCOC(=O)C1CCN(C(=O)Cn2c(=O)c3cccn3c3cccnc32)CC1,"inconclusive: 14.1 µM [activator, partial curve]"
8,CCNC(=S)N(CCc1c(C)[nH]c2ccccc12)Cc1cccnc1,"inconclusive: 31.6 µM [activator, single point]"
9,COc1cc(C(=O)Nc2ccc3c(c2)OCCO3)ccc1OC(C)C,inactive
10,COc1ccc(C(=O)Nc2cc(C)c3c(=O)oc4ccccc4c3n2)cc1,"inconclusive: 31.6 µM [activator, single point]"
11,CCn1c(=NC(=O)c2ccc3c(c2)OCCO3)sc2c(C)ccc(OC)c21,"inconclusive: 35.5 µM [activator, single point]"
12,Cc1cccc(C(=O)Nc2cccc(OCc3cc(=O)n4cccc(C)c4n3)c2)c1,"inconclusive: 39.8 µM [activator, single point]"
13,O=S(=O)(Nc1nc2ccccc2nc1Cl)c1ccc(F)cc1,"inconclusive: 28.2 µM [activator, partial curve]"
14,CC(NC(=O)c1ccc(NC(=O)c2nsc3ccccc23)cc1)c1ccccc1 (stereo not given),"inconclusive: 39.8 µM [activator, single point]"
15,Cc1cc(C)c2nc(-c3ccccn3)cc(C(=O)NCCc3ccc(S(N)(=O)=O)cc3)c2c1,"inconclusive: 22.4 µM [activator, single point]"
16,O=C(Nc1ccc(-c2nc3ccccc3s2)c(O)c1)c1ccc(Br)cc1,"inconclusive: 5.01 µM [activator, partial curve]"
17,CCc1ccccc1NC(=O)CSc1nc(C)c(C(=O)Nc2ccccc2)c(-c2ccc(Cl)cc2)c1C#N,"inconclusive: 31.6 µM [activator, partial curve]"
18,O=C(Nc1cc(C(F)(F)F)ccc1Cl)c1cc(-c2cccs2)nc2ccccc12,"inconclusive: 28.2 µM [activator, partial curve]"
19,CCc1nnc(NC(=O)CSc2nc3cc4c(cc3cc2C)OCCO4)s1,"inconclusive: 31.6 µM [activator, single point]"
20,COc1ccc(CCNC(=O)c2cnc3ccc(C)cn3c2=O)cc1OC,"inconclusive: 17.8 µM [activator, partial curve]"
21,CCOC(=O)CN(Cc1ccccc1)C(=O)OC(C)(C)C,inactive
22,O=C(Nc1ccc(N2CCOCC2)cc1)C1CC(=O)N(c2ccc(F)cc2)C1 (stereo not given),"inconclusive: 28.2 µM [activator, single point]"

row,SMILES,Potency
1,O=c1c2cc3c(nc2[nH]c(=S)n1-c1ccccc1)CCCC3,"inconclusive: 39.8 µM [activator, single point]"
2,Cc1ccc(NC(=O)Cn2c(C)cc(C)c(C#N)c2=O)cc1,inactive
3,COC(=O)c1cc2c(cc1NC(=O)c1c(C)nn(-c3ccc(C)cc3)c1-n1cccc1)OCO2,inactive
4,O=C(NCCCCNC(=O)c1ccc(Br)s1)c1ccc(Br)s1,"inconclusive: 35.5 µM [activator, partial curve]"
5,CC(NCC1COc2ccccc2O1)C1COc2ccccc2O1 (stereo not given),inactive
6,S=C(NCc1ccc2[nH]c3c(c2c1)CCCC3)Nc1ccccc1Cl,"inconclusive: 39.8 µM [activator, single point]"
7,CC(C)(C)C(=O)Nc1cc(-c2cccc(Br)c2)nn1-c1ccccc1,"inconclusive: 39.8 µM [activator, single point]"
8,CCOC(=O)c1ccc(NC(=O)CSc2nc3ncc(Br)c(C)c3[nH]2)cc1,"inconclusive: 35.5 µM [activator, single point]"
9,O=C(CN1CCCCCC1)Nc1ccc(Oc2ccccc2)cc1,inactive
10,Cc1ccc(C(=O)NCc2nnc3c(C(F)(F)F)cc(Cl)cn23)o1,"inconclusive: 15.8 µM [activator, partial curve]"
11,CC1=C(C(=O)OCC2CCCO2)C(c2coc3ccccc3c2=O)C2=C(CC(C)(C)CC2=O)N1 (stereo not given),"inconclusive: 25.1 µM [activator, partial curve]"
12,COc1ccc(OCCNC(=O)C(Cc2c[nH]c3ccccc23)NC(C)=O)cc1 (stereo not given),inactive
13,CCc1ccccc1Nc1nn2c(=O)c3ccc(C(=O)NCc4ccc(C)cc4)cc3nc2s1,"inconclusive: 31.6 µM [activator, single point]"
14,Cc1ccc(CCNC(=O)c2cn(C)c3ccc(S(=O)(=O)N(C)C4CCCCC4)cc3c2=O)cc1,"inconclusive: 35.5 µM [activator, single point]"
15,Cc1ccc(NC(=O)C(C)OC(=O)c2ccc(Cl)nc2)cc1S(=O)(=O)N1CCOCC1 (stereo not given),inactive
16,COC(=O)C(=Nc1ccccc1)/C(C(=O)C(=O)N(C)c1ccccc1)=C(\O)c1ccc(Cl)cc1,"inconclusive: 25.1 µM [activator, partial curve]"
17,COc1ccc2nc(NC(=O)c3nc(S(=O)(=O)Cc4ccccc4)ncc3Cl)sc2c1,inactive
18,CSc1ccc(CCNC(=O)CCc2c(C)nc3c(c(C)nn3-c3ccc(C)c(C)c3)c2C)cc1,"inconclusive: 39.8 µM [activator, single point]"
19,O=c1c2ccccc2cnn1Cc1n[nH]c(=S)n1-c1ccccc1F,"inconclusive: 28.2 µM [activator, partial curve]"
20,CCOC(=O)N1CCN(c2nc3c(C)cccn3c(=O)c2C=O)CC1,"inconclusive: 20 µM [activator, partial curve]"
21,CCN(CC(=O)Nc1ccccc1OC)C(=O)/C=C/c1cccs1,inactive
22,COC(=O)c1ccc(C2/C(=C(\O)c3ccc4c(c3)OCCO4)C(=O)C(=O)N2c2nnc(C)s2)cc1 (stereo not given),"inconclusive: 35.5 µM [activator, partial curve]"

row,SMILES,Potency
1,Cc1ccc(C)c(CSc2ccc3nnc(CCNS(=O)(=O)c4ccccc4)n3n2)c1,"inconclusive: 39.8 µM [activator, single point]"
2,Cc1ccc(-c2nc3ccccc3s2)cc1NC(=O)COc1ccccc1,"inconclusive: 31.6 µM [activator, single point]"
3,Cc1ccc(S(=O)(=O)N(C)Cc2cc3cc(C)ccc3[nH]c2=O)cc1,"inconclusive: 35.5 µM [activator, single point]"
4,CCc1ccc(-n2c(=O)c3ccccc3n3c(=S)[nH]nc23)cc1,"inconclusive: 28.2 µM [activator, single point]"
5,COc1ccc(-c2oc3ccc(N4CCOCC4)cc3c2/C=C/c2ccc(OC)c(OC)c2)cc1,"inconclusive: 25.1 µM [activator, partial curve]"
6,CCOC(=O)c1cc(C#N)c(=S)[nH]c1C,"inconclusive: 31.6 µM [activator, partial curve]"
7,CCNC(=O)C1CCCN(c2nnc(C)c3c(C)n(-c4ccc(C)cc4)nc23)C1 (stereo not given),"inconclusive: 20 µM [activator, partial curve]"
8,Cc1sc2ncnc(Sc3nc4ccccc4s3)c2c1C,"inconclusive: 35.5 µM [activator, single point]"
9,CCc1nnc2c3ccccc3nc(Nc3ccc(F)c(Cl)c3)n12,"inconclusive: 39.8 µM [activator, single point]"
10,COc1ccc(-c2c3c(nc4sc(C(=O)Nc5ccccc5F)c(N)c24)CC(C)(C)CC3=O)cc1,"inconclusive: 39.8 µM [activator, single point]"
11,Cc1[nH]c(=S)[nH]c(=O)c1Cc1ccccc1,inactive
12,CCN1C(=O)[C@H]2[C@@H](c3ccc(-c4cccc(Cl)c4)cc3)N[C@@](C)(C(=O)OC)[C@H]2C1=O,inactive
13,Cc1cc(N2C(=O)C(O)=C(C(=O)c3cccs3)C2c2ccccc2)no1 (stereo not given),"inconclusive: 17.8 µM [activator, partial curve]"
14,CN(CC(O)COCc1ccccc1F)C1CCCCC1 (stereo not given),inactive
15,Brc1ccc(-c2nnc3sc(CNC4CCCC4)cn23)cc1,"inconclusive: 2.82 µM [activator, full curve]"
16,CCc1ccc(C(=O)c2cn(CC(=O)Nc3ccc(OC)cc3)c3cc4c(cc3c2=O)OCCO4)cc1,"inconclusive: 31.6 µM [activator, partial curve]"
17,CCOC(=O)CSc1nnc(Cc2ccccc2)n1-c1ccc(C)cc1,inactive
18,Cc1cccc(C)c1OCC(=O)Nc1c(C(=O)c2ccccc2)oc2ccccc12,"inconclusive: 28.2 µM [activator, partial curve]"
19,COCCN(C(=O)c1snc(C(N)=O)c1N)C(C(=O)NC1CCCCC1)c1ccc(N(C)C)cc1 (stereo not given),"inconclusive: 31.6 µM [activator, single point]"
20,CC(C)(C)c1nnc2sc(SCC(=O)c3ccc4c(c3)OCCO4)nn2c1=O,"inconclusive: 39.8 µM [activator, single point]"
21,CCn1c(SCC(=O)N2CCC(C)CC2)nc2c1c(=O)n(C)c(=O)n2C,"inconclusive: 31.6 µM [activator, partial curve]"
